{"source": "the supplement of paper PMC6135742", "note": "Structures can show the parent of a compound that is named as a salt. ± gives the standard deviation of the averaged measurements. In all, about 2,600 compounds were measured (“MBP+ mature oligodendrocyte number relative to DMSO vehicle control”: median about -0.34, highest 2% from about 13 on). Some of the results follow.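 Further: 10 µM single dose with 3-day oligodendrocyte differentiation.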"}
{"system": "jimpy (Plp1 jimpy) mouse iPSC-derived oligodendrocyte progenitor cells", "test": "MBP+ mature oligodendrocyte number relative to DMSO vehicle control (SDs above negative control mean); higher = more surviving jimpy oligodendrocytes (rescue)", "details": "10 µM; 3 days"}
{"smiles": "COc1ccc(-c2coc3cc(O)ccc3c2=O)cc1", "note": "[Formononetin]", "MBP+ mature oligodendrocyte number": 5.88}
{"smiles": "CN1CCN(S(=O)(=O)c2ccc(-c3cnc(N)c(C(=O)Nc4cccnc4)n3)cc2)CC1", "MBP+ mature oligodendrocyte number": "< -6.35"}
{"smiles": "Nc1ccc2ncnc(NCCc3ccc(Oc4ccccc4)cc3)c2c1", "MBP+ mature oligodendrocyte number": "< -6.35"}
{"smiles": "Oc1c(Br)cc(Br)c2cccnc12", "note": "[Broxyquinoline]", "MBP+ mature oligodendrocyte number": 3.03}
{"smiles": "COc1ccc(CC(C)NCC(O)c2ccc(O)c(NC=O)c2)cc1", "note": "(configuration not stated) [Formoterol]", "MBP+ mature oligodendrocyte number": -0.439}
{"smiles": "COc1ccc(CC(C)NCC(O)c2ccc(O)c(NC=O)c2)cc1", "note": "(configuration not stated) [Formoterol Hemifumarate]", "MBP+ mature oligodendrocyte number": 1.69}
{"smiles": "O=C(OCCN1CCOCC1)C1(c2ccccc2)CCCCC1", "MBP+ mature oligodendrocyte number": -0.363}
{"smiles": "Cc1ccc2c(c1)C(=O)C1(O)CCN(c3ccccc3)C1=N2", "note": "(single isomer, unassigned; (-)) [(-)-Blebbistatin]", "MBP+ mature oligodendrocyte number": "< -6.35"}
{"smiles": "CC(C)C[C@H](NC(=O)[C@H](Cc1ccccc1)NC(=O)c1cnccn1)B(O)O", "note": "[Bortezomib (PS-341)]", "MBP+ mature oligodendrocyte number": "< -6.7"}
{"smiles": "CS(=O)(=O)c1ccc(C(=O)Nc2ccc(Cl)c(-c3ccccn3)c2)c(Cl)c1", "note": "[Vismodegib (GDC-0449)]", "MBP+ mature oligodendrocyte number": 2.47}
{"smiles": "CC1(C)CCC(c2ccc(Cl)cc2)=C(CN2CCN(c3ccc(C(=O)NS(=O)(=O)c4ccc(N[C@H](CCN5CCOCC5)CSc5ccccc5)c(S(=O)(=O)C(F)(F)F)c4)cc3)CC2)C1", "note": "[ABT-263 (Navitoclax)]", "MBP+ mature oligodendrocyte number": -6.61}
{"smiles": "O=C(COc1ccc(C(=O)c2ccccc2)cc1)NC1CCN(Cc2ccccc2)CC1", "note": "[AdipoRon]", "MBP+ mature oligodendrocyte number": 5.37}
{"smiles": "CCOC(=O)N1CCC(=C2c3ccc(Cl)cc3CCc3cccnc32)CC1", "note": "[Loratadine]", "MBP+ mature oligodendrocyte number": "1.87 ± 3.3"}
{"smiles": "O=C(NOCC1CC1)c1ccc(F)c(F)c1Nc1ccc(I)cc1Cl", "MBP+ mature oligodendrocyte number": -4.87}
{"smiles": "Nc1nc(F)nc2c1ncn2[C@@H]1O[C@H](COP(=O)(O)O)[C@@H](O)[C@@H]1O", "note": "[Fludarabine Phosphate]", "MBP+ mature oligodendrocyte number": -3.21}
{"smiles": "O=C1/C(=C/c2cccs2)CC/C1=C\\c1cccs1", "MBP+ mature oligodendrocyte number": 0.0387}
{"smiles": "CC(C)(N)c1ncc(-c2ccc(OC(F)(F)F)cc2)[nH]1", "MBP+ mature oligodendrocyte number": -1.43}
{"smiles": "COCCCC/C(=N\\OCCN)c1ccc(C(F)(F)F)cc1", "note": "[Fluvoxamine maleate]", "MBP+ mature oligodendrocyte number": "-1.46 ± 3.2"}
{"smiles": "C[C@]12CCC(=O)C=C1CC[C@@H]1[C@@H]2C(=O)C[C@@]2(C)[C@H]1CC[C@]2(O)C(=O)CO", "note": "[Cortisone]", "MBP+ mature oligodendrocyte number": -0.983}
{"smiles": "COC(=O)[C@H](c1ccccc1Cl)N1CCc2sccc2C1", "note": "[Clopidogrel]", "MBP+ mature oligodendrocyte number": 1.42}
{"smiles": "CCN(CC)CCNC(=O)c1ccc(NS(C)(=O)=O)cc1", "note": "[Sematilide monohydrochloride monohydrate]", "MBP+ mature oligodendrocyte number": -0.439}
{"smiles": "C[C@H](N[C@@H](CCc1ccccc1)C(=O)O)C(=O)N1CCC[C@H]1C(=O)O", "note": "[Enalaprilat dihydrate]", "MBP+ mature oligodendrocyte number": 0.574}
{"smiles": "C[C@H](N[C@@H](CCc1ccccc1)C(=O)O)C(=O)N1CCC[C@H]1C(=O)O", "note": "[Enalaprilat Dihydrate]", "MBP+ mature oligodendrocyte number": -0.467}
{"smiles": "NC(=O)N1CCC(CC(=O)N2CCC([C@H]3c4ncc(Br)cc4CCc4cc(Cl)cc(Br)c43)CC2)CC1", "note": "[Lonafarnib]", "MBP+ mature oligodendrocyte number": -5.61}
{"smiles": "O=C(O)C1CCCNC1", "note": "(racemic) [(±)-Nipecotic acid]", "MBP+ mature oligodendrocyte number": -1.18}
{"smiles": "O=C(Nc1cc(C(F)(F)F)cc(C(F)(F)F)c1)c1cc(Cl)ccc1O", "MBP+ mature oligodendrocyte number": -5.85}
{"smiles": "CN(C)[C@@H]1C(O)=C(C(N)=O)C(=O)[C@@]2(O)C(O)=C3C(=O)c4c(O)cccc4[C@@](C)(O)[C@H]3C[C@@H]12", "note": "[Tetracycline HCl]", "MBP+ mature oligodendrocyte number": 0.339}
{"smiles": "CNC[C@@H](O)c1ccc(O)c(O)c1", "note": "[L-Adrenaline]", "MBP+ mature oligodendrocyte number": 1.12}
{"smiles": "Cc1ccc(N(CC2=NCCN2)c2cccc(O)c2)cc1", "note": "[Phentolamine mesylate]", "MBP+ mature oligodendrocyte number": 1.93}
{"smiles": "Cc1ccc(N(CC2=NCCN2)c2cccc(O)c2)cc1", "note": "[Phentolamine Mesylate]", "MBP+ mature oligodendrocyte number": 1.42}
{"smiles": "CC(C)(C)c1ccc(/C=C/C(=O)Nc2ccc3c(c2)OCCO3)cc1", "MBP+ mature oligodendrocyte number": 1.18}
{"smiles": "CC[n+]1c(/C=C/C=C2/N(C)c3ccccc3C2(C)C)sc2ccccc21", "MBP+ mature oligodendrocyte number": "< -4.47"}
{"smiles": "CCc1ccc(CCOc2ccc(CC3SC(=O)NC3=O)cc2)nc1", "note": "(configuration not stated) [Pioglitazone]", "MBP+ mature oligodendrocyte number": -1.23}
{"smiles": "CCc1ccc(CCOc2ccc(CC3SC(=O)NC3=O)cc2)nc1", "note": "(configuration not stated) [Pioglitazone HCl]", "MBP+ mature oligodendrocyte number": 0.0731}
{"smiles": "Cc1c(Cl)cccc1Nc1ccccc1C(=O)O", "note": "[Tolfenamic Acid]", "MBP+ mature oligodendrocyte number": 1.69}
{"smiles": "CCCSc1ccc2[nH]c(NC(=O)OC)nc2c1", "note": "[Albendazole]", "MBP+ mature oligodendrocyte number": 1.06}
{"smiles": "COc1cc(F)c(C(C)C)cc1-c1ccc(C(F)(F)F)cc1CN1C(=O)O[C@H](c2cc(C(F)(F)F)cc(C(F)(F)F)c2)[C@@H]1C", "note": "[Anacetrapib (MK-0859)]", "MBP+ mature oligodendrocyte number": 3.52}
{"smiles": "CO[C@H]1/C=C/O[C@@]2(C)Oc3c(C)c(O)c4c(O)c(c(/C=N/N5CCN(C)CC5)c(O)c4c3C2=O)NC(=O)/C(C)=C\\C=C\\[C@H](C)[C@H](O)[C@@H](C)[C@@H](O)[C@@H](C)[C@H](OC(C)=O)[C@@H]1C", "note": "[Rifampin]", "MBP+ mature oligodendrocyte number": -1.19}
{"smiles": "CC(C)NCC(O)c1ccc(O)c(O)c1", "note": "(racemic) [(±)-Isoproterenol hydrochloride]", "MBP+ mature oligodendrocyte number": 0.225}
{"smiles": "CC(C)NCC(O)c1ccc(O)c(O)c1", "note": "(racemic) [Isoprenaline HCl]", "MBP+ mature oligodendrocyte number": -0.276}
{"smiles": "CC(C(=O)O)c1ccc(CC2CCCC2=O)cc1", "note": "(configuration not stated) [loxoprofen]", "MBP+ mature oligodendrocyte number": 0.0686}
{"smiles": "CC[C@H]1OC(=O)[C@H](C)[C@@H](O[C@H]2C[C@@](C)(OC)[C@@H](O)[C@H](C)O2)[C@H](C)[C@@H](O[C@@H]2O[C@H](C)C[C@H](N(C)C)[C@H]2O)[C@](C)(O)C[C@@H](C)C(=O)[C@H](C)[C@@H](O)[C@]1(C)O", "note": "[Erythromycin]", "MBP+ mature oligodendrocyte number": 1.78}
{"smiles": "CC1=C(/C=C/C(C)=C/C=C/C(C)=C/C=C/C=C(C)/C=C/C=C(C)/C=C/C2=C(C)CCCC2(C)C)C(C)(C)CCC1", "note": "[Beta Carotene]", "MBP+ mature oligodendrocyte number": -1.01}
{"smiles": "NCCCCC(=O)O", "note": "[5-Aminovaleric acid hydrochloride]", "MBP+ mature oligodendrocyte number": -1.14}
{"smiles": "c1ccc(CC2=NCCN2)cc1", "note": "[Tolazoline HCl]", "MBP+ mature oligodendrocyte number": -0.523}
{"smiles": "CC(C)(Oc1ccc(CCNC(=O)c2ccc(Cl)cc2)cc1)C(=O)O", "note": "[Bezafibrate]", "MBP+ mature oligodendrocyte number": "0.633 ± 1.6"}
{"smiles": "OCCN1CCN(CCCN2c3ccccc3Sc3ccc(C(F)(F)F)cc32)CC1", "note": "[Fluphenazine dihydrochloride]", "MBP+ mature oligodendrocyte number": -4.41}
{"smiles": "Clc1ccc2c(c1)C(N1CCNCC1)=Nc1ccccc1O2", "note": "[Amoxapine]", "MBP+ mature oligodendrocyte number": -3.06}
{"smiles": "O=C(O)CCCc1c[nH]c2ccccc12", "note": "[3-Indolebutyric acid (IBA)]", "MBP+ mature oligodendrocyte number": 0.227}
{"smiles": "O=C(c1cc(Cc2n[nH]c(=O)c3ccccc23)ccc1F)N1CCN(C(=O)C2CC2)CC1", "MBP+ mature oligodendrocyte number": -2.07}
{"smiles": "CC(C)[C@@H](C)/C=C/[C@@H](C)[C@H]1CC[C@H]2C3=CC=C4C[C@@H](O)CC[C@]4(C)[C@H]3CC[C@]12C", "note": "[Ergosterol]", "MBP+ mature oligodendrocyte number": 0.619}
{"smiles": "O=C1c2ccccc2C(=O)C1c1ccccc1", "note": "[Phenindione]", "MBP+ mature oligodendrocyte number": 0.253}
{"smiles": "O=C(O)CCc1nc(-c2ccccc2)c(-c2ccccc2)o1", "note": "[Oxaprozin]", "MBP+ mature oligodendrocyte number": "-0.0205 ± 1.1"}
{"smiles": "C=CC(N)CCC(=O)O", "note": "(racemic) [(±)-gamma-Vinyl GABA]", "MBP+ mature oligodendrocyte number": 0.324}
{"smiles": "OC[C@@H](O)[C@@H](O)[C@H](O)[C@H](O)CO", "note": "[D-Mannitol]", "MBP+ mature oligodendrocyte number": 1.79}
{"smiles": "CC(=O)OCC(=O)NCCCOc1cccc(CN2CCCCC2)c1", "note": "[Roxatidine Acetate HCl]", "MBP+ mature oligodendrocyte number": 0.793}
{"smiles": "CCn1cc(C(=O)O)c(=O)c2cc(F)c(N3CCNCC3)nc21", "note": "[Enoxacin]", "MBP+ mature oligodendrocyte number": 0.793}
{"smiles": "C[C@H](NCc1ccc(OCc2cccc(F)c2)cc1)C(N)=O", "note": "[Safinamide Mesylate]", "MBP+ mature oligodendrocyte number": -2.16}
{"smiles": "CC1(C)CCC=[N+]1[O-]", "note": "[5,5-Dimethyl-1-pyrroline-N-oxide]", "MBP+ mature oligodendrocyte number": 0.136}
{"smiles": "CC1(C)CCC(NC(=O)[C@@H](N)CCC(=O)O)CC1", "MBP+ mature oligodendrocyte number": -0.323}
{"smiles": "O=C(O)C1CCNCC1", "note": "[Isonipecotic acid]", "MBP+ mature oligodendrocyte number": -0.951}
{"smiles": "OC[C@H]1OC(O)[C@H](O)[C@@H](O)[C@@H]1O", "note": "(some centres not stated) [Dextrose]", "MBP+ mature oligodendrocyte number": 5.77}
{"smiles": "CCCc1ncc(C[n+]2ccccc2C)c(N)n1", "note": "[Amprolium HCl]", "MBP+ mature oligodendrocyte number": 1.76}
{"smiles": "O=C1NC(=O)/C(=C/c2ccc3nccc(-c4ccncc4)c3c2)S1", "MBP+ mature oligodendrocyte number": -6.26}
{"smiles": "Oc1ccc(C2CNCCc3c2cc(O)c(O)c3Cl)cc1", "note": "(configuration not stated) [Fenoldopam bromide]", "MBP+ mature oligodendrocyte number": -0.648}
{"smiles": "CC(C(=O)O)c1cccc(Oc2ccccc2)c1", "note": "(configuration not stated) [Fenoprofen Calcium]", "MBP+ mature oligodendrocyte number": 2.68}
{"smiles": "O=C(COc1cccc2c(=O)[nH]ccc12)c1ccccc1", "MBP+ mature oligodendrocyte number": 2.01}
{"smiles": "CNCCNS(=O)(=O)c1cccc2cnccc12", "note": "[H-8 dihydrochloride]", "MBP+ mature oligodendrocyte number": -1.23}
{"smiles": "O=C(O)Cn1c(C(=O)Nc2nc(-c3ccccc3Cl)cs2)cc2ccccc21", "MBP+ mature oligodendrocyte number": 0.189}
{"smiles": "C[C@](N)(Cc1ccc(O)cc1)C(=O)O", "note": "[L-alpha-Methyl-p-tyrosine]", "MBP+ mature oligodendrocyte number": -0.0882}
{"smiles": "CC(C)NCC(O)COc1cccc2ccccc12", "note": "(racemic) [Propranolol HCl]", "MBP+ mature oligodendrocyte number": 2.18}
{"smiles": "CC(C)NCC(O)COc1cccc2ccccc12", "note": "(racemic) [(±)-Propranolol hydrochloride]", "MBP+ mature oligodendrocyte number": 0.5}
{"smiles": "CS(=O)(=O)c1ccc([C@@H](O)[C@@H](CF)NC(=O)C(Cl)Cl)cc1", "note": "[Florfenicol]", "MBP+ mature oligodendrocyte number": 6.57}
{"smiles": "CCN(CC)CCCC(C)Nc1ccnc2cc(Cl)ccc12", "note": "(configuration not stated) [Chloroquine diphosphate]", "MBP+ mature oligodendrocyte number": -2.08}
{"smiles": "C[N+](C)(C)CCOP(=O)(O)OP(=O)([O-])OC[C@H]1O[C@@H](n2ccc(N)nc2=O)[C@H](O)[C@@H]1O", "note": "[Cytidine 5'-diphosphocholine sodium salt hydrate]", "MBP+ mature oligodendrocyte number": -0.648}
{"smiles": "CC(C)c1nc(N(C)S(C)(=O)=O)nc(-c2ccc(F)cc2)c1/C=C/[C@@H](O)C[C@@H](O)CC(=O)O", "note": "[Rosuvastatin Calcium]", "MBP+ mature oligodendrocyte number": -1.17}
{"smiles": "C=C(C)[C@@H]1CC[C@]2(C(=O)O)CC[C@]3(C)[C@H](CC[C@@H]4[C@@]5(C)CC[C@H](O)C(C)(C)[C@@H]5CC[C@]43C)[C@@H]12", "note": "[Betulinic acid]", "MBP+ mature oligodendrocyte number": 2.41}
